PubChem BioAssay (NCI)
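Method: 48-hour compound exposure of cells in 96-well plates, five concentrations, linear interpolation of endpoints. At the GI50, growth is halved. TGI marks complete inhibition of growth.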

System: NCI-H322M lung
Assay: inhibition of tumour cell growth, NCI panel, 48 h

Row | SMILES | TGI | GI50
1 | COc1ccc(Cc2nc3cc([N+](=O)[O-])ccc3n2C[C@@H]2CCCN3CCCCC23)cc1 (stereo not given in full) | 57.7 µM | 
2 | C[C@]12CC[C@H](OC3OC(O)C(O)C(O)C3O)C=C1CCC1C2CC[C@]2(C)[C@@H](c3ccc(=O)oc3)CC[C@]12O (stereo not given in full) | 0.00611 µM | 0.005 µM
3 | c1ccc(CSSSCc2ccccc2)cc1 | > 100 µM | 
4 | COC(=O)CSC1CC(=O)c2c(Cl)sc(Cl)c21 (stereo not given) | > 100 µM | 
5 | COc1cc(NC(=O)c2ccc(C(F)(F)F)nc2Nc2ccc(Cl)cc2C)cc(OC)c1OC | 65.8 µM | 11.5 µM
6 | CCN(CC)c1ccc2c(cc1=O)[C@@H](NC(C)=O)CCc1cc(OC)c(OC)c(OC)c1-2 | > 100 µM | 0.614 µM
7 | O=[N+]([O-])c1nccn1COCCI | > 100 µM | 
8 | C[C@H]1CC[C@@H]2[C@@H](C)C[C@H]3[C@@H]4C(C)(C)OC(=O)[C@]4(C)C(=O)[C@@]23C1=O | > 100 µM | 
9 | CCn1cc(C(=O)N/N=C/c2ccc(Br)cc2)c(=O)c2cc(F)c(N3CCNC(C)C3)c(F)c21 (stereo not given) | 3.1 µM | 1.68 µM
10 | COc1ccc2c(c1OC)CO[C@@H]2[C@H]1c2c(c(Br)c3c(c2OC)OCO3)CCN1C | 55 µM | 9.48 µM
11 | COc1ccccc1-c1cc(=O)c2ccccc2n1C1CC1 | 4.53 µM | 
12 | COC(=O)C([C@H]1CC[C@H](OCc2ccccc2)[C@@]1(O)COCc1ccccc1)C(C)(O)CCc1ccccc1 (stereo not given in full) | > 100 µM | 
13 | Oc1ccc(CCl)c2cccnc12 | > 100 µM | 20 µM
14 | COC(=O)c1c2c(c3[nH]c4ccccc4c3c1C(=O)OC)C(=O)C1=C(C2=O)C2(Cl)C(Cl)C(Cl)C1(Cl)C2(Cl)Cl (stereo not given) | > 100 µM | 
15 | CCOC(=O)C1(c2ccccc2)CCCNCC1 (stereo not given) | > 100 µM | 
16 | COc1cc2c(cc1OC)C(Cc1ccc(Oc3cc(CC4c5cc(OC)c(OC)cc5CCN4C)ccc3O)cc1)N(C)CC2 (stereo not given) | > 100 µM | 
17 | COC(=S)OC1CC(n2cnc3c(=O)[nH]cnc32)OC1CO[Si](C)(C)C(C)(C)C (stereo not given) | > 100 µM | 
18 | O=C1OC(c2ccccc2)=N/C1=C\c1ccc(F)cc1 | > 100 µM | 
19 | COc1cc2c(cc1OC)[Se]c1cc(OC)c(OC)cc1[Se]2 | > 100 µM | > 100 µM
20 | COc1cc(C(C)c2ccc3c(ccn3C)c2)cc(OC)c1OC (stereo not given) | > 100 µM | 0.0448 µM
21 | CN1CCN(CCCCN2c3ccccc3Sc3ccc(C(=O)c4ccccc4)cc32)CC1 | 3.35 µM | 
22 | CC(C)(C)c1ccc2c(c1)C(=O)c1ccccc1C2=O | > 100 µM | 
23 | COc1cc(-c2nn(-c3ccc(NC(=O)NCCCNC(=O)c4ccccc4)cc3)cc2-c2ccncc2)ccc1Cl | > 100 µM | 0.784 µM
24 | O=C1OC(CC(=O)c2ccccc2Cl)C(Cl)=C1Cl (stereo not given) | > 100 µM | 
25 | N#C/C(=C\c1cc(Br)c(O)c(Br)c1)c1ccccn1 | > 100 µM | 
26 | Cc1cc(-c2c(Br)cc(C(=O)O)n2C)on1 | > 100 µM | 
27 | Cc1ccc(C)c(COc2cc(NC(=O)c3ccc4c(c3)OCO4)ccc2N(C)S(C)(=O)=O)c1 | > 100 µM | 0.43 µM
28 | COc1cccc2c1C(=O)c1c(O)c3c(c(O)c1C2=O)CC(O)(C(=O)CO)CC3OC1CC(N)C(I)C(C)O1 (stereo not given) | > 100 µM | 
29 | CCOc1ccc2nc3cc(N=Nc4ccc(N)nc4N)ccc3c(N)c2c1 | 6.42 µM | 
30 | CC(=O)NC1=C(C)C(=O)c2c(nc3n2CCC3OC(=O)CCl)C1=O (stereo not given) | 31.1 µM | 
